Results on one molecule are retold here after US20190153113A1, “CD39 VASCULAR ISOFORM TARGETING AGENTS” (INNATE PHARMA, priority 2015, published 2019).

One data set concerns the target T1, CD39-L3 (Homo sapiens, UniProt O75355).
T1 sequence (O75355 1-529): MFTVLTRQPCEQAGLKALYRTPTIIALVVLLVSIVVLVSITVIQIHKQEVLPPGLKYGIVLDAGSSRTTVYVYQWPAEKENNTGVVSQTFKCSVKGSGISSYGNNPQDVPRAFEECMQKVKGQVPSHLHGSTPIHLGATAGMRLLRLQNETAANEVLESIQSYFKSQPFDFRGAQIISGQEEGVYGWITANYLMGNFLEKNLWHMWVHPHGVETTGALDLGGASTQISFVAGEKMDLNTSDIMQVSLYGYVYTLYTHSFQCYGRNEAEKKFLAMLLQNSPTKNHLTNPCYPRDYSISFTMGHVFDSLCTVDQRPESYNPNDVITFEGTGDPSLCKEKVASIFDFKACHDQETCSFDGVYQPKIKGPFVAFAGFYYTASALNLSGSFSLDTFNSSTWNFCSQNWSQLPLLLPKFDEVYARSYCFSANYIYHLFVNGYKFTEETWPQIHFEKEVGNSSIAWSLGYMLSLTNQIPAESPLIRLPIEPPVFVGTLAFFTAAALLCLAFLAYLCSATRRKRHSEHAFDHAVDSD
Description: ELISA titration on recombinant human CD39 isoforms. The format is binding. Conditions: recombinant protein coated. As for the experimental part:
(§1) Wells were washed in TBS Tween 20, and further saturated 2H at RT in TBS Blocking buffer. Dose range concentration of primary antibody was incubated in TBS blocking buffer for 2h at RT. Wells were washed in TBS Tween 20. […] Optical density was measured on Enspire at OD=450.

Another data set concerns the target T2, CD39-L4 (Homo sapiens, UniProt O75356).
T2 sequence (O75356 25-428): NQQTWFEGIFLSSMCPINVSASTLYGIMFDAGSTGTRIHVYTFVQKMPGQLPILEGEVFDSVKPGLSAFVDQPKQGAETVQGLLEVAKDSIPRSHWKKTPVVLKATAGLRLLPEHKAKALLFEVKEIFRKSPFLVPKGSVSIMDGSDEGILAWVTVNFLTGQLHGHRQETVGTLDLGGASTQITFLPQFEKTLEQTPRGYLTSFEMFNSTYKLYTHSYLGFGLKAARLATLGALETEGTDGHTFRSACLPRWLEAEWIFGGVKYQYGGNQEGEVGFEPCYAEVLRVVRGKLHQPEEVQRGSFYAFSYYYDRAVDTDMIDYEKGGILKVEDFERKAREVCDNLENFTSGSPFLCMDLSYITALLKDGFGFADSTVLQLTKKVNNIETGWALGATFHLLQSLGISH
Description: ELISA titration on recombinant human CD39 isoforms. The class given is binding. Conditions: recombinant protein coated. Here is the method:
as §1

The next data set concerns the target T3, CD39-L1 (Homo sapiens, UniProt Q9Y5L3).
T3 sequence (Q9Y5L3 1-472 isoform Q9Y5L3-2): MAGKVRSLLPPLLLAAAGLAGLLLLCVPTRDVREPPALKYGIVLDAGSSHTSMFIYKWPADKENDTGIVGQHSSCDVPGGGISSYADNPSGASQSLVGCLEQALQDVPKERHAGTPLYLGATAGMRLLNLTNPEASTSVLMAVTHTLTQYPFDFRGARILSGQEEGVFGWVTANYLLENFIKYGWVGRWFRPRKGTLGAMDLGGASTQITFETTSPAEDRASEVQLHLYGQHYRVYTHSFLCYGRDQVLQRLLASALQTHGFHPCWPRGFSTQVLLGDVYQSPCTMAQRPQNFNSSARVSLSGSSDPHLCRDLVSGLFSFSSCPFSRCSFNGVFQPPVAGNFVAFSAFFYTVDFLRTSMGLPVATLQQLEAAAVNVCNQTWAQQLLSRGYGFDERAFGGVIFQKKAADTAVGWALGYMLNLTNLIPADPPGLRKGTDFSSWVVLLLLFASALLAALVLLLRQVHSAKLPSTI
Description: ELISA titration on recombinant human CD39 isoforms. As to conditions: recombinant protein coated. The class given is binding. Here is the method: as §1

The target in a further data set is T4, vascular CD39 (Homo sapiens, UniProt P49961).
T4 construct: recombinant human CD39-M2 extracellular domain recombinant protein; made in house; host or cells: CHO cells (secreted, purified from supernatant)
T4 sequence (P49961 38-478 limits assumed): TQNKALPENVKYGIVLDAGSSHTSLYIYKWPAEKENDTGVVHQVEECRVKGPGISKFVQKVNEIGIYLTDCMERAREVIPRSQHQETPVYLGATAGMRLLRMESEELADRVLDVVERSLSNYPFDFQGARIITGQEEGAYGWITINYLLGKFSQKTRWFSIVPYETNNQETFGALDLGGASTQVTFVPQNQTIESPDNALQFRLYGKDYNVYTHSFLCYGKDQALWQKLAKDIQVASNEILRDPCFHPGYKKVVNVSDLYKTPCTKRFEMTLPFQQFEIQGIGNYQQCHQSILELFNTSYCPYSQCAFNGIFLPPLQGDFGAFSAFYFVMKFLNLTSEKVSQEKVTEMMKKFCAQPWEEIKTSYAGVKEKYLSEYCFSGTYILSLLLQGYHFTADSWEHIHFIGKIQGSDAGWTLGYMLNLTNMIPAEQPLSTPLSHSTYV
Description: ELISA titration on recombinant human CD39 isoforms. Conditions: recombinant protein coated. The class given is binding. Here is the method: as §1

In a further data set the target is T5, CD39 (Homo sapiens, UniProt P49961).
T5 construct: cells that endogenously express CD39 at their surface, e.g. regulatory T (TReg) cells, B cells, cancer cells, lymphoma cells (e.g. Ramos cells); endogenous in cells; host or cells: Ramos human lymphoma cells
T5 sequence (P49961 1-510): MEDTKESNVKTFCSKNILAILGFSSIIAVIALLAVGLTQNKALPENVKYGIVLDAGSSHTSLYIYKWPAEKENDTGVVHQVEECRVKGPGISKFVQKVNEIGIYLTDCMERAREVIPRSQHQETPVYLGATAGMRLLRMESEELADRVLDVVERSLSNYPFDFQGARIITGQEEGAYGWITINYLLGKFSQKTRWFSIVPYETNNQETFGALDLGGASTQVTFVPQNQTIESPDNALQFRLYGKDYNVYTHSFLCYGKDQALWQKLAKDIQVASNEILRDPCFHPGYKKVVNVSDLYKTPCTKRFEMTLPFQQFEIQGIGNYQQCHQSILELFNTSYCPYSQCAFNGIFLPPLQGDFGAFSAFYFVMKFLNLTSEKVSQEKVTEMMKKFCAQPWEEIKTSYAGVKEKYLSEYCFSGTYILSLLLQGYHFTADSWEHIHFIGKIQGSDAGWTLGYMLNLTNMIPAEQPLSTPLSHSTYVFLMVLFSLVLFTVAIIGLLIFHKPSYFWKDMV
Description: Inhibition of CD39 enzymatic activity in Ramos cells, AMP production by Maldi TOF mass spectrometry. The format is cell-based. As for the experimental part: The inhibition of CD39 enzymatic activity by antibodies was evaluated by Maldi TOF mass spectrometry (production of AMP). This assay represents an assay that is relatively insensitive to down-modulation of CD39 expression. […] After washes, cells were incubated with anti-CD39 antibodies, isotype control, or ARL and 50 μM ATP for 30 minutes at 4° C. in PBS. AMP generated is quantified in supernatants by Maldi TOP.
The inhibition of CD39 enzymatic activity by antibodies was evaluated by Maldi TOF mass spectrometry (production of AMP). Briefly, 10^5 Ramos human lymphoma cells were incubated overnight at 37° C. with anti-CD39 antibodies or a chemical CD39 inhibitor (ARL 100 μM). After washes, cells were incubated with anti-CD39 antibodies, isotype control, or ARL and 50 μM ATP for 30 minutes at 4° C. in PBS. AMP generated is quantified in supernatants by Maldi TOP. Antibodies were used at 33 nM and ARL at […].

Data set [1] deals with T6, human CD39 at cell surface (Homo sapiens, UniProt P49961).
T6 construct: cells that endogenously express CD39 at their surface, e.g. regulatory T (TReg) cells, B cells, cancer cells, lymphoma cells (e.g. Ramos cells); endogenous in cells; host or cells: Ramos human lymphoma cells
T6 sequence (P49961 1-510): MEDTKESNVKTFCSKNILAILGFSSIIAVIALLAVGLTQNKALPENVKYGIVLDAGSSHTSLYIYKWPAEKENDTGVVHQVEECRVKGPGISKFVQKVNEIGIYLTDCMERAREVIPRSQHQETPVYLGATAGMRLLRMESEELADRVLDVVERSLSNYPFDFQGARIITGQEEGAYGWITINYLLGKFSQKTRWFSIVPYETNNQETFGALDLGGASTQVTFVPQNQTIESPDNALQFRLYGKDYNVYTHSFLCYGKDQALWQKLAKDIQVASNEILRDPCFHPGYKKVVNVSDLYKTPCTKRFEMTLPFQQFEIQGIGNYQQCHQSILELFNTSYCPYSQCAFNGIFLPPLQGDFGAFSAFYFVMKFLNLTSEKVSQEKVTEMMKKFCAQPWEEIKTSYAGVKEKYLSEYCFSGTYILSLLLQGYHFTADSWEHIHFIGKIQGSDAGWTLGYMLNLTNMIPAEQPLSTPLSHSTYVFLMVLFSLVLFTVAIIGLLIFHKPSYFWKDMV
Description: CD39 down-modulation / internalization on Ramos cells. The class given is cell-based. Conditions: Ramos human lymphoma cells, 10 μg/ml, 4° C. or 37° C.

Entries after “also recorded” stand apart in the source; their conditions may differ.

B1: I-391: anti-CD39 antibody, VH SEQ ID NO: 6 and VL SEQ ID NO: 7, Fc silent chimeric human IgG1 with N297Q mutation (antibody)
heavy: QIQLVQSGPELKKPGETVKISCKASGYTFRNYGMNWVKQAPGKGLKWMGWINTYTGEPTYADDFKGRFAFSLATSASTAYLQISNLKNEDTATYFCARKAYYGSNYYFDYWGQGTTLTVSSASTKGPSVFPLAPSSKSTSGGTAALGCLVKDYFPEPVTVSWNSGALTSGVHTFPAVLQSSGLYSLSSVVTVPSSSLGTQTYICNVNHKPSNTKVDKRV[letters of human IgG1 Fc with changes left out]
light: DIVMTQSHKFMSTSVGDRVSITCKASQDVSTAVAWYQQKPGQSPKLLIYSASYRYTGVPDRFTGSGSGTDFTFTISTVQAEDLAVYYCQQHYTTPPYTFGGGTKLEIKRTVAAPSVFIFPPSDEQLKSGTASVVCLLNNFYPREAKVQWKVDNALQSGNSQESVTEQDSKDSTYSLSSTLTLSKADYEKHKVYACEVTHQGLSSPVTKSFNRGEC
With B1, the “binding to CD39-L3” value with CD39-L3 is on record as “not to any of the CD39 isoforms; also recorded: without any binding”. In addition, the “binding to CD39-L4” value with CD39-L4 was “not to any of the CD39 isoforms; also recorded: without any binding”. In the data set with CD39-L1, the “binding to CD39-L1” value is “without any binding”. The “binding to vascular CD39” value in the data set with vascular CD39 is listed as “bound to the vascular CD39; also recorded: bound only vascular CD39”. Besides, in the data set with CD39 (50 μM ATP), the maximum inhibition achieved turned out to be 93.4%. In addition, the “blocking CD39 enzymatic activity” value with CD39 (Example 6) was “very potent at blocking CD39 enzymatic activity”. Also, in the data set with CD39 (antibodies at 33 nM, Example 7), the “inhibition of AMP generated” value was “strong inhibition of AMP generated”. For the same molecule, the “CD39 down modulation / internalization” value in data set [1] is “do not induce CD39 down modulation nor CD39 internalization; also recorded: did not induce CD39 down modulation nor CD39 internalization”.
